According to PubChem BioAssay AID588342 (National Center for Advancing Translational Sciences (NCATS), 2011):
“And” between values parts separate entries of the source, which are not always exact repeats. Equal entries are not always repeated. Out of some 360,000 compounds screened, about 25,000 (6.9%) were called active. The inconclusive results got no clear call from the source; some entries with a clear call stand among them for comparison. The call rests on the fitted dose curve; in most records, active means well fitted inhibition curve with a large enough effect; inconclusive means small, poorly fitted or top-dose-only effect; inactive means flat fitted curve, though single readings scatter. Potencies beside an inconclusive call are fits to weak or partial responses and may not hold up. Where a structure was tested more than once in an assay, its records may differ in their call.

target: Luciferin 4-monooxygenase (Photinus pyralis) (UniProt P08659); experiment: qHTS profiling assay for firefly luciferase inhibitor/activator using purifed enzyme and Km concentrations of substrates (counterscreen for miR-21 project); conditions: purified FLuc, luminescence inhibition; series mostly up to 57.5 µM; further: nearly all actives have a fitted effect of over 55% in size
In short: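 Purified P. pyralis luciferase, 10 nM final, with Km-level 10 uM D-luciferin and 10 uM ATP in 50 mM Tris acetate pH 7.5, 10 mM Mg acetate, 0.01% Tween-20, 0.05% BSA; 6-point qHTS titration about 60 µM downward; luminescence read.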
Potency means the concentration at half of the fitted maximal effect; tags describe the fitted curve by direction and shape.

Sequence of UniProt P08659 (P08659 whole entry, looked up): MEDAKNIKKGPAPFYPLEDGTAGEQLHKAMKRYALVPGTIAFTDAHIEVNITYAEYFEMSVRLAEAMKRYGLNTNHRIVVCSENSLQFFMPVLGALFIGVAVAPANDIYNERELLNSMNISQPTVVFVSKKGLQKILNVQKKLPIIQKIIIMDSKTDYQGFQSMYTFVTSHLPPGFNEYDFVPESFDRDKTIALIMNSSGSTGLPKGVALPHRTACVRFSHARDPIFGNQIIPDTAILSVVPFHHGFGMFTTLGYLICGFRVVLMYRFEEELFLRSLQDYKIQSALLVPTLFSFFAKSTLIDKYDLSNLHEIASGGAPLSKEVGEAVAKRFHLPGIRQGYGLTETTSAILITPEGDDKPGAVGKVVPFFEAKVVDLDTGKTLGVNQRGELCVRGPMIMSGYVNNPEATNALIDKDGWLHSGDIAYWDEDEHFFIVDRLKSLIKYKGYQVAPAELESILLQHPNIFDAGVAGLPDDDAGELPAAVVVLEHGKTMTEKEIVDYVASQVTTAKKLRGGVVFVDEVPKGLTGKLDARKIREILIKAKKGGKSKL

SMILES | Potency
O=C(Nc1ccccc1)Nc1ccc2ocnc2c1 | active: 10.7 µM
CC(C)C(=O)Nc1nc(-c2ccc3c(c2)CCN3C(=O)C2CC2)cs1 | active: 15.1 µM
CC1(C(=O)N/N=C/c2ccccc2)CC1(Br)Br (stereo not drawn) | inconclusive: 15.1 µM [inhibitor, partial curve]
Cc1c(NC(=O)/C(C#N)=C/c2ccc(-c3ccc(Cl)cc3)o2)c(=O)n(-c2ccccc2)n1C | inconclusive: 21.3 µM [inhibitor, single point]
O=C(/C=C/c1ccc(Br)o1)OCc1ccccc1 | inconclusive: 26.9 µM [inhibitor, single point]
CCC(CC)NC(=O)CN1CCN(S(=O)(=O)c2ccc(Br)s2)CC1 | inactive
Cc1ccc(C)c(C(=O)CSc2nc3ccccc3c(=O)[nH]2)c1 | inactive
CCOc1ccc(N=C(/C(C(=O)C(=O)N2CCOCC2)=C(/O)c2ccccc2)c2ccccc2)cc1 | inconclusive: 21.3 µM [inhibitor, partial curve]
CC1CCCN(Cc2csc(N)n2)C1 (stereo not drawn) | inactive
CCOC(=O)c1ccccc1NC(=O)c1cc2ccccc2o1 | inconclusive: 19 µM [inhibitor, single point]
COc1cccc(NC(=O)N2CCCC2C(=O)NCc2ccco2)c1 (stereo not drawn) | inactive
Fc1ccc(CO/N=C/C2=C(Cl)c3ccccc3CC2)cc1 | inconclusive: 19 µM [inhibitor, partial curve]
O=C(Nc1ccc2c(c1)OCCO2)c1oc2ccccc2c1NC(=O)C1CC1 | inconclusive: 21.3 µM [inhibitor, single point]
Cc1ccc2nsnc2c1NS(=O)(=O)c1c(C)ccc2nsnc12 | inactive
COc1ccccc1CCNC(=O)NC1CCCCC1 | inconclusive: 23.9 µM [inhibitor, single point]
Cc1ccc(C(=O)NCC(=O)OC(C)C(=O)NCCC2=CCCCC2)cc1C (stereo not drawn) | inactive
CN(C(=O)c1ccc2c(c1)OCO2)C1CCCCC1 | inconclusive: 26.9 µM [inhibitor, partial curve, poor fit]
Clc1ccc(Nc2ccc(NCc3ccccc3)nn2)cc1 | inconclusive: 23.9 µM [inhibitor, single point]
O=C(c1ccccc1)N1CCN(c2ncnc3c(-c4ccccc4)nsc23)CC1 | inactive
CC(C)NC(=O)CCCN1C(=O)c2ccccc2Sc2ncccc21 | inactive
Cn1c(/N=C/c2c(O)ccc3ccccc23)nc2ccccc21 | inconclusive: 15.1 µM [inhibitor, partial curve]
Cc1ccc(C(=O)Cn2cnc3ccccc3c2=O)cc1C | active: 19 µM
Cn1nc(-c2ccccc2)cc1NC(=O)c1cccs1 | inactive
Cc1coc2c1C(=O)C(=O)c1c-2ccc2c1CCCC2(C)C | inconclusive: 21.3 µM [inhibitor, partial curve]

SMILES | Potency
C=CCN=C1CC(C)(C)C(C(=O)OC)C(O)=C1C(=O)CCC (stereo not drawn) | inactive
COc1ccc(-c2ccc(CCC(=O)O)n2CC2CCCO2)cc1 (stereo not drawn) | inconclusive: 30.1 µM [inhibitor, partial curve, poor fit]
Cc1nc2cc(-c3ccc(F)cc3)nn2c(N2CCOCC2)c1C | inconclusive: 26.9 µM [inhibitor, single point]
CN(C)C(=O)c1ccc(NC(=O)COC(=O)c2cc3c(s2)CCCCC3)cc1 | inconclusive: 21.3 µM [inhibitor, single point]
C=CCn1c(-c2cccs2)nc2ccccc21 | inconclusive: 19 µM [inhibitor, partial curve, poor fit]
COc1ccc(Br)cc1CN(C)C(C)C(=O)Nc1cc([N+](=O)[O-])ccc1OC (stereo not drawn) | inactive
N#Cc1c(NCCO)nc(NCc2ccccc2)c2c1CCN(Cc1ccccc1)C2 | inconclusive: 26.9 µM [inhibitor, single point]
O=C(Nc1ccc2c(c1)OCO2)C1CCN(S(=O)(=O)c2cccs2)CC1 | inconclusive: 26.9 µM [inhibitor, single point]
CCOc1ccc(NC(=O)c2ccc(NC(=O)C3CCCO3)cc2)cc1 (stereo not drawn) | inconclusive: 15.1 µM [inhibitor, partial curve, poor fit]
COc1ccc(-c2[nH]n(-c3ccc([N+](=O)[O-])cc3)c(=O)c2C=NCc2ccc(F)cc2)cc1 | inactive
Clc1ccc(-c2csc(=Nc3ccccc3)n2Cc2ccc3c(c2)OCO3)cc1 | inconclusive: 30.1 µM [inhibitor, partial curve]
Fc1ccccc1Oc1ncnc2c1oc1ccccc12 | inconclusive: 26.9 µM [inhibitor, partial curve, poor fit]
O=C(Cn1nnc(-c2ccc(F)cc2)n1)N1CCCCC1 | inactive
O=C(Oc1ccc2ccc(O)cc2c1)C1CCCCC1 | active: 16.9 µM
CCOC(=O)Cn1ncc(-c2ccccc2)c1N | inconclusive: 23.9 µM [inhibitor, single point]
CC(=O)c1cccc(-n2nnnc2SCC(=O)Nc2cc(C)on2)c1 | inactive
Cc1cccc(OCc2nc(C#N)c(NCc3ccccc3Cl)o2)c1 | inconclusive: 30.1 µM [inhibitor, partial curve, poor fit]
Cn1c(O)c(N=NC(=O)c2ccccc2O)c2ccccc21 | active: 3.01 µM
COc1cccc(NC(=O)c2ccn(C)n2)c1 | inconclusive: 23.9 µM [inhibitor, partial curve, poor fit]
N/C(=N\OC(=O)/C=C/c1ccccc1)c1ccc(Cl)cc1 | inconclusive: 16.9 µM [inhibitor, partial curve]
NC(=O)Cn1nnc(-c2ccc(NC(=O)c3ccc(F)cc3)cc2)n1 | inconclusive: 8.49 µM [inhibitor, full curve]
COCCCNC(=O)c1ccc2nc(Cc3ccc(OC)cc3)oc2c1 | inactive and active: 16.9 µM
O=C(N/N=C/c1ccccn1)c1ccc(NC(=O)c2ccc(F)cc2)cc1 | inconclusive: 19 µM [inhibitor, partial curve]
COc1ccc(C(=O)Nc2cc3c4c(c2)CC(=O)N4CCC3)cc1 | active: 21.3 µM
